Among all 48,000 compounds or so, about 120 (0.25%) were called active. Another 4% or so got no clear call; they are omitted. The call rests on the fitted dose curve; in most records, active means well fitted activation curve with a large enough effect; inconclusive means small, poorly fitted or top-dose-only effect, or another doubt; inactive means no such curve, though single readings can be large or run the other way. The list shows a part of the results.
Test: Primary qHTS for Identification of Small Molecule Activators of Huntingtin-Antisense Promoter Activity; further: nearly all actives have a fitted effect of over 55% in size
Details: HEK293 HTT-AS promoter firefly luciferase reporter (activity 0% = vehicle and -100% = no light), 24 h; series mostly up to 57.5 µM; activity change, positive = activation: at the top concentration
How it was run: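 Luminescence was read after Dual-Glo reagent and a 10 min room-temperature incubation. Values were normalized to vehicle (0% activity) and zero RLU (-100% activity). Reporter HEK293 cells had been exposed to compounds (up to 57.5 uM final) for 24 h.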

Activity change, positive = activation, inactive:
O=C(NCCCc1nc2ccccc2n1Cc1ccccc1)C1CCCCC1 -22.1%
Cc1ccccc1OCc1ccc(-c2nc(C#N)c(N3CCN(c4ccccc4)CC3)o2)o1 -16.1%
N#CC1(c2ccc(F)cc2)CCC(=O)CC1 0.619%
COc1cccc(Cn2c(C)c(CNCc3ccccc3Cl)c(C(=O)O)c2C)c1 -13.9%
CCOc1ccc(CNC(=O)c2ccc(NC(=O)N3CCSc4ncccc43)cc2)cc1OC -9.48%
CN(C)c1cc2c(cc1NC(=O)c1ccc(F)cc1)n(C)c(=O)n2C -20.4%
CCc1ccc(-c2cc(C)no2)cc1S(=O)(=O)Nc1ccc(C)cn1 -31.2%
Cc1cccc(-c2nnn3c2nc(NCc2ccccc2)c2ccccc23)c1 28.7%
CC(C)CCNC(=O)C1CCN(S(=O)(=O)c2cccc3nsnc23)CC1 -9.23%
CNC(=O)C1CCN(Cc2cc3ccccc3n2Cc2cccc(C)c2)CC1 -25.1%
CCOC(=O)c1cnc2ccc(C(=O)OC)cc2c1Nc1ccc(N2CCOCC2)cc1 -48%
COC(=O)c1ccc(Cn2c(SCC(=O)NCc3ccccc3)nc3ccccc32)cc1 -10.4%
CSCCC(NS(=O)(=O)c1cccs1)C(=O)Nc1ccc(C)c(Cl)c1 (configuration not stated) -13.8%
CCOc1ccc(CCNC(=O)c2ccc(CS(=O)(=O)c3ccccc3C)o2)cc1OCC -39.7%
O=C(CO)[C@@H](O)[C@H](O)[C@@H](O)CO -4.56%
CCc1ccccc1Nc1ncnc2c1cnn2-c1ccc(Cl)cc1 -14.2%
COc1ccc(Cl)cc1NC(=O)c1ncn(-c2ccccc2)n1 18.5%
COc1ccc(OC)c(NC(=O)Cc2c(C)n(C(=O)c3ccc(Cl)cc3)c3ccc(OC)cc23)c1 -30.2%
CC(=O)c1cccc(NC(=O)CN2C(=O)c3cccnc3Sc3ccccc32)c1 12.6%
CCc1ccc(NC(=O)Cn2c(=O)n(-c3ccccc3)c(=O)c3ccc(C(=O)NCc4ccc5c(c4)OCO5)cc32)cc1 -32.3%
Cc1ccc(C)c(Cn2c(=O)n(Cc3ccco3)c(=O)c3oc4ccccc4c32)c1 -10.7%
COc1cc(CN(C(=O)c2ccc(OC(C)C)cc2)C2CCS(=O)(=O)C2)cc(OC)c1OC (configuration not stated) -5.62%
CCN1CCOC(=O)C1CC(=O)Nc1ccc(C(C)=O)cc1 (configuration not stated) -11.2%
CCCCOC(=O)c1ccc(O)cc1 27.9%
CCOC(=O)C1CCN(S(=O)(=O)c2ccc(N3CCCCS3(=O)=O)cc2)CC1 -8.68%
OCCC#Cc1nc(-c2ccc(F)cc2)c(-c2ccncc2)n1CCCc1ccccc1 -18.8%
CCn1c(SCc2ccc(F)cc2Cl)nc(=O)c2c(C(=O)OC)cc(C3CC3)nc21 -37.1%
CNCCCCOc1ccccc1Cc1ccccc1 -20.3%
Cc1ccc(CNC(=O)c2cc(-c3ccc(C)cc3)nc3n[nH]c(-c4ccc(F)cc4)c23)cc1 0%
CC(C)C1N=C2c3ccccc3N=C(SCC(=O)NCc3ccccc3Cl)N2C1=O (configuration not stated) -4.17%
CCCn1c(=O)c2sccc2n2c(CCCC(=O)Nc3ccc(Oc4ccccc4)cc3)nnc12 -17.2%
COCCCOc1cc(C[C@@H](C[C@H](N)[C@@H](O)C[C@H](C(=O)NCC(C)(C)C(N)=O)C(C)C)C(C)C)ccc1OC
CCc1ccc(-n2nc(CO)c(C(=O)NCC(c3ccccc3)c3ccccc3)n2)cc1 -3.48%
Cc1ccc(N(Cc2cc3ccccc3[nH]c2=O)C(=O)c2cccc(Cl)c2)cc1 -42.3%
CCN(CC)CCCNC(=O)CSc1nc2nc(C)c(Cc3c(F)cccc3Cl)c(C)n2n1 -3.02%
COc1ccc(OCC2c3cc(OC)c(OC)cc3CCN2C(=O)COc2ccc(Cl)cc2Cl)cc1 (configuration not stated) -13.6%
CC(C)c1ccc2occ(CC(=O)Nc3ccccc3Cl)c2c1 -13.6%
COc1ccc(Cn2ccc3nc(C)c(C(=O)N4CCN(c5ccccc5OC)CC4)cc3c2=O)cc1 -23.3%
CC(C)NC(=O)C(c1ccccc1)N1Cc2ccccc2C1=O (configuration not stated) 1.94%
CC1=C(C(N)=O)C(c2cccc(C)c2)n2nc(-c3cccc(C)c3)nc2N1 (configuration not stated) -11.6%
Cc1ccc(C)c(NC(=O)Cn2c(=O)n(Cc3ccc4c(c3)OCO4)c(=O)c3oc4ccccc4c32)c1 -3.55%
CCCc1nc2c(C)cc(-c3nc4ccccc4n3C)cc2n1Cc1ccc(-c2ccccc2C(=O)O)cc1
Cc1ccc(CSc2nnc(-n3c(=O)c(C#N)cc4c(=O)n5cc(C)ccc5nc43)s2)cc1 -13.5%
COc1ccc(-c2noc(CSc3nc(C)cc(=O)[nH]3)n2)cc1OC -31.1%
COc1cc(C(CC(=O)Nc2cc(C)ccc2C)N2Cc3ccccc3C2=O)cc(OC)c1OC (configuration not stated) -18%
CC(=O)c1ccc(NC(c2ccc(F)cc2)c2nnc(-c3ccccc3)o2)cc1 (configuration not stated) -17.4%
CC(C)(C)OC(=O)N1CCC(c2c(C(=O)N3CCN(c4ccccn4)CC3)cnn2-c2ccccc2Cl)CC1 -12.2%
CCOCCCNC(=O)c1cn(CC)c2ccc(S(=O)(=O)N3CCc4ccccc4C3)cc2c1=O -13.1%
Cc1ccc2nc(-c3ccncc3)c(Nc3ccc(C(C)C)cc3)n2c1 4.45%
CCOC(=O)c1[nH]c(C)c(CCC(=O)N2CCN(c3cccc(C)c3C)CC2)c1C -30.8%
CCc1ccc(Nc2sc(C(=O)c3ccccc3)c(N)c2S(C)(=O)=O)cc1 -25.4%
CCOCCc1nn2c(=O)cc(COC(=O)CNC(=O)c3ccc(F)cc3)nc2s1 -0.728%
CCOc1ccc(CC(=O)NCCc2csc(-c3ccc(Cl)cc3)n2)cc1 -26.4%
COc1ccc(OC)c(CNC(=O)c2c(C)oc3ncn(C)c(=O)c23)c1 -0.0819%
O=C(c1ccc2c(c1)CCN2S(=O)(=O)c1ccc(Cl)cc1)N1CCN(c2ccccc2)CC1 -4.78%
CCOc1ccc(CN2C(=O)c3ccccc3Sc3ccc(C(=O)OC)cc32)cc1 -43.7%
CC(=O)Nc1ccc(S(=O)(=O)NCc2cccn2Cc2cccc(C)c2)cc1 -15.8%
COc1ccc(N2CC(NC(=O)c3ccco3)CC2=O)cc1OC (configuration not stated) -18%
O=C(NCc1ccc(F)cc1)C1CCN(c2ncnc3c2nc2n3CCCCC2)CC1 3.37%
COc1ccc(CNC(=O)c2ccc3c(c2)N(Cc2ccccc2C)C(=O)c2ccccc2S3=O)cc1 (configuration not stated) -4.51%
COc1ccc(CNc2oc(/C=C/c3cccc(OC)c3)nc2C#N)cc1 0.37%
Cc1ccc(NC(=O)CSCc2cnn(-c3ccccc3)c2-n2cccc2)c(Cl)c1 -19.7%

Source: PubChem BioAssay AID1508624 (National Center for Advancing Translational Sciences (NCATS), 2021)
